Experimental data taken from ChEMBL document CHEMBL5308541, “MAIP: An Open-Source Tool to Enrich High-Throughput Screening Output and Identify Novel, Druglike Molecules with Antimalarial Activity” (ACS Med Chem Lett, 2023).
Among all 150,000 compounds or so, about 540 (0.36%) showed an effect of 50% or more. The list shows a part of the results.

system: Plasmodium falciparum; assay: Primary screen in NF54 nanoGlo assay, in single point, at 2uM, 72h; a lower Z score goes with more inhibition; format: functional, Erythrocyte; conditions: timepoint 72 hour

| SMILES | % Inhibition [%] | Z score |
| --- | --- | --- |
| c1cc2cn[nH]c2cc1CNC1(c2noc(C3CCCC3)n2)CCCCCC1 | -7 | 1.21 |
| COc1ccc(Cn2cc(-c3n[nH]c4ncccc34)cn2)cc1 | -6 | 0.89 |
| Cn1nc(NC(=O)Cn2cccnc2=O)c2c(N3CCOCC3)cccc21 | -11 | 2.45 |
| CN(Cc1cc(-c2ccccc2)no1)C(=O)CN1CC2CCC(CC1=O)N2 (centres undefined) | 6 | -1.35 |
| Cc1ccc2[nH]cc(-c3ccc(Oc4ccc(N)cn4)cc3)c2c1 | 2 | -0.47 |
| C[C@H](Oc1cccc(-c2ccnc3[nH]ccc23)c1)C(N)=O | 17 | -3.74 |
| Cc1nc2c(c(N(C)C)n1)CCN(C(=O)c1c[nH]nc1-n1cnnn1)C2 | -6 | 0.87 |
| O=C(NC1CCCC1n1ccnc1)c1cccc(Nc2cnccn2)c1 (centres undefined) | -1 | 0.27 |
| Nc1ccc(-c2cc(N)nc(N3CCOCC3)n2)cn1 | 1 | -0.21 |
| CC(c1ccccc1)N1CCC(NCC2CN3CCCC3CO2)C1 (centres undefined) | 6 | -1.1 |
| CS(=O)(=O)N1CCC(CNc2ccc(-c3ccncc3)cn2)CC1 | -6 | 1 |
| CN(C)c1nccc(N2C[C@@H](F)C[C@H]2CNCc2cnc3cnccn23)n1 | 0 | 0.07 |
| OCCn1ccc(Nc2cc(C(F)(F)F)nc(-c3cccnc3)n2)n1 | -6 | 1.36 |
| COC1CCOCC1NC(=O)c1cc2cnccc2[nH]1 (centres undefined) | -4 | 0.63 |
| Cc1cc2cc(C(=O)N3CCC(Cc4noc(C5CC5)n4)CC3)ccc2o1 | 16 | -2.87 |
| Cc1cc(C(=O)N2C[C@H](O)[C@@H](N(C)C)C2)nn1-c1ccc(F)cc1 | -10 | 2.03 |
| CCc1nnc(-c2c(C)[nH]c(-c3ccccc3)c2-c2c(-c3ccccc3)noc2CC)[nH]1 | 4 | -0.66 |
| CN(C)c1ccnc(NCCC2CCN(C3CCCC3)CC2)n1 | -6 | 1.02 |
| c1cc(CN2CCN(c3cc(N4CCN(Cc5ccncc5)CC4)ncn3)CC2)ccn1 | 29 | -5.7 |
| COc1cc(OC)c2nc(N3CCCO[C@@H](CN4CCCCC4)C3)cc(C)c2c1 | -1 | 0.27 |
| FC(F)(F)CN1CCC[C@@H]1CNc1ncnc2[nH]ncc12 | -4 | 0.74 |

| SMILES | % Inhibition [%] | Z score |
| --- | --- | --- |
| C[C@H]1CCCCN1C(=O)CN1CCN(c2ccc(-c3ccc4c(c3)OCCCO4)nn2)CC1 | -14 | 2.46 |
| C[C@@H]1CN(C(=O)c2cnc3[nH]ccc3c2)C[C@H](C)N1CC(F)(F)F | -12 | 2.03 |
| FC(F)(F)CN1CC[C@H](Nc2nnc(-c3cccc(Cl)c3)o2)C1 | 6 | -1.21 |
| Cc1c[nH]c(CN(C)C(=O)NCC2CCN(C3CCN(C)CC3)CC2)n1 | -3 | 0.39 |
| c1ccc2[nH]c(-c3cnn4ccccc34)nc2c1 | 0 | 0.02 |
| Cc1cc(N2CCCN(CCC(=O)Nc3cccnc3)CC2)ccn1 | -13 | 2.28 |
| Cc1[nH]nc2cc(NC(=O)[C@H]3CCN(C4CCCCC4)C3)ccc12 | 7 | -1.11 |
| O[C@@H](CNc1ncnc2cnccc12)c1ccc(-c2ccsc2)s1 | 5 | -0.8 |
| CC(=O)Nc1ccc(CCNCc2cccc(O)c2)cc1 | -1 | 0.15 |
| O[C@H](COC1CCOCC1)CN1CCN(c2nccc3sccc23)CC1 | -12 | 2.57 |
| Cc1ccc(O)c(-c2[nH]nc3c2[C@@H](c2ccc(C(C)(C)C)cc2)N(CCCN2CCOCC2)C3=O)c1 | -12 | 1.88 |
| CC(NCCCC1(O)CCC1)C1CN(C(=O)OC(C)(C)C)CCO1 (centres undefined) | 0 | -0.07 |
| Cc1ccc(C)c(CN(C)C(=O)[C@@H]2CS(=O)(=O)CC(=O)N2)c1 | -10 | 2.09 |
| O=C(Cc1cccc2ccccc12)N1CCC(N2CCC(Oc3ccccc3F)CC2)CC1 | -2 | 0.38 |
| FC(F)(F)c1ccccc1-c1ccc(-c2nnc(Nc3ccccc3)s2)o1 | -6 | 1.07 |
| C[C@@H](c1cccc(-c2nc3cc(C#N)ccc3[nH]2)c1)N(C)C | 27 | -4.6 |
| COc1cc(CCNC(=O)N2CCN(c3cccc4[nH]ccc34)CC2)ccn1 | 0 | -0.07 |
| CC(C)(C)c1nc(CN2CCCN(c3nc(-c4ccncc4)nc4ccccc34)CC2)no1 | 7 | -1.43 |
| CC1CN(CCN2CCN(CCN3CCOC(C)C3)C(C(=O)N(C)C)C2)CCO1 (centres undefined) | 0 | 0.09 |
| N#Cc1ccccc1-c1ccc(-c2c(-c3ccccc3)ncn2CCO)o1 | 2 | -0.47 |
| O=C1NCC(=O)N2C[C@H](Nc3ncnc4cc[nH]c34)C[C@@H]12 | -9 | 1.44 |

| SMILES | % Inhibition [%] | Z score |
| --- | --- | --- |
| CCOc1ccc([C@@H]2C[C@H]2NC(=O)[C@@H](NC(C)=O)C(C)(C)C)cc1 | -6 | 0.92 |
| COCCn1ccc2c(OCC(=O)Nc3nc(-c4c[nH]c5ccc(OC)cc45)cs3)cccc21 | 1 | -0.14 |
| Cc1oc2c(c1C(=O)N[C@@H](C)c1cn3ncsc3n1)C(=O)CCC2 | -3 | 0.54 |
| O=C(CNC(=O)c1ncccc1C(=O)NCCc1cc2ccccc2[nH]1)NCCc1cc2ccccc2[nH]1 | -7 | 1.21 |
| O=C(N[C@H]1CC[C@H](O)CC1)c1nnc2c(Br)cccn12 | -9 | 1.39 |
| NC(=O)CCCNC(=O)N[C@H]1CCc2c(Cl)cccc21 | -1 | 0.11 |
| CC(C)N1CCC(N(C)C(=O)c2cnc3[nH]ccc3c2)CC1 | -4 | 0.64 |
| CN1CCN(C2COCC2Nc2nc(N(C)C)nc3c2CCCC3)CC1 (centres undefined) | -8 | 1.32 |
| COc1ccc(CN2CCc3[nH]c(-c4cccc(F)c4)nc3C2)cc1O | -14 | 2.99 |
| CCCNc1ncc(CN2CCCCOc3cc(ccc3OC)C3CC(CNC(=O)C2)C2CCCN32)cn1 (centres undefined) | -8 | 1.46 |
| O[C@@H](CNC1CCN(c2ccccn2)CC1)c1cccc(C(F)(F)F)c1 | 4 | -0.66 |
| OCCNc1cc([C@H]2C[C@@H](Nc3ccc4ccccc4n3)C2)ncn1 | -4 | 0.75 |
| CC(NCCCN1CCCC1)C1CCCCN1C(=O)OC(C)(C)C (centres undefined) | -5 | 0.92 |
| NCCc1ccc(CNCC2(N3CCCCC3)CCCC2)cc1 | 8 | -1.3 |
| Cc1ccn2ncc(C(=O)N(C)[C@H]3CCCCNC3=O)c2n1 | -5 | 0.95 |
| CCOc1ccc(CNCc2nc3cc(F)ccc3[nH]2)cc1CO | -5 | 0.74 |
| O=C(c1cccc(-c2nc3ccccc3n2CCO)c1)N1CCCNCC1 | 3 | -0.69 |
| Cc1cc(C)c(CN2CCC[C@@]2(C)C(=O)O)c(C)n1 | -17 | 3.34 |
| Cc1cnccc1N1CCCN(C(=O)[C@H]2CCCN(C3CCOCC3)C2)CC1 | -4 | 0.89 |
| COc1ccc2c(O)c(Br)c(C)nc2c1 | 75 | -13.24 |
| O=C(Nc1nc2ccccc2[nH]1)c1cccc(CNc2ccncn2)c1 | -6 | 0.98 |

| SMILES | % Inhibition [%] | Z score |
| --- | --- | --- |
| F[C@H]1C[C@@H](CNCc2ccc3cn[nH]c3c2)N(c2cccnn2)C1 | -18 | 2.71 |
| Cn1cnc2cc(S(=O)(=O)N3CCC[C@@]3(C)C(=O)O)ccc21 | -3 | 0.46 |
| Cc1cc(C)n2ncc(C(=O)C(c3nc4ccccc4s3)c3nc4ccccc4s3)c2n1 | -3 | 0.51 |
| Cn1cc(-c2cc(CN3CCC(Nc4cccnn4)CC3)on2)cn1 | -4 | 0.64 |
| CNC(=O)c1[nH]nc2c1CN(CC(=O)N1CCOc3ccccc31)CC2 | 3 | -0.46 |
| Clc1ccc(NC2CCN(c3ccncc3)CC2)cc1CN1CCOCC1 | -2 | 0.24 |
| O=C(C1CCOCC1)N1C[C@H](CNc2ncnc3[nH]ccc23)C2(CCOCC2)C1 | 6 | -1.09 |
| CCCO[C@H]1CCCN(S(=O)(=O)c2ccc(NC(C)=O)c3ccccc23)C1 | -9 | 1.91 |
| Nc1nc(NCCO)cc(-c2cccc3cnccc23)n1 | 2 | -0.37 |
| Cc1ccc2nc(CN3CCN(CC4CCN(C)CC4)CC3)cc(O)c2c1 | 2 | -0.29 |
| COc1cccc2c1OCC(CN(C)[C@@H](C)c1ccncc1)=C2 | -10 | 2.19 |
| OCC1CC(Nc2ncnc3[nH]ccc23)C1 (centres undefined) | 0 | -0.02 |
| CN(C(=O)c1cccc(CCC(C)(C)O)c1)C1CC(C)(C)NC(C)(C)C1 | -3 | 0.64 |
| c1ccc2oc(CCNC3CCN(c4ccc5c(c4)OCO5)CC3)nc2c1 | -14 | 2.38 |
| CN1CCn2ncc(C(=O)N[C@@H]3C[C@H]3c3ccccc3)c2S1(=O)=O | -4 | 0.86 |
| Cc1cccc2c(O)c(C(=O)N[C@H]3CCCN(C4CCN(C)CC4)C3)cnc12 | -8 | 1.74 |
| Cc1nc(N2CCOCC2)ccc1N[C@@H](C)c1ccccc1OC(F)F | -9 | 1.47 |
| Oc1cc(CN2CCC3(CC2)CNc2ccccc23)nc2c(Cl)cccc12 | -17 | 2.58 |
| O=C1C[C@H](CNc2ncnc3c2CCNCC3)CN1C1CCCC1 | -3 | 0.44 |
